Data: publication PMC4336329 (PLoS ONE, 2015)
The campaign covered roughly 310,000 compounds. About 2,200 (0.71%) showed an effect of 50% or more. Effects have a minus sign here. The list shows a part of the results.

Target: human ether-à-go-go-related gene (hERG) potassium channel (human, UniProt Q12809)
Assay: primary screen, population patch clamp on CHO cells stably expressing hERG

human ether-à-go-go-related gene (hERG) potassium channel, sequence (Q12809 whole entry, looked up): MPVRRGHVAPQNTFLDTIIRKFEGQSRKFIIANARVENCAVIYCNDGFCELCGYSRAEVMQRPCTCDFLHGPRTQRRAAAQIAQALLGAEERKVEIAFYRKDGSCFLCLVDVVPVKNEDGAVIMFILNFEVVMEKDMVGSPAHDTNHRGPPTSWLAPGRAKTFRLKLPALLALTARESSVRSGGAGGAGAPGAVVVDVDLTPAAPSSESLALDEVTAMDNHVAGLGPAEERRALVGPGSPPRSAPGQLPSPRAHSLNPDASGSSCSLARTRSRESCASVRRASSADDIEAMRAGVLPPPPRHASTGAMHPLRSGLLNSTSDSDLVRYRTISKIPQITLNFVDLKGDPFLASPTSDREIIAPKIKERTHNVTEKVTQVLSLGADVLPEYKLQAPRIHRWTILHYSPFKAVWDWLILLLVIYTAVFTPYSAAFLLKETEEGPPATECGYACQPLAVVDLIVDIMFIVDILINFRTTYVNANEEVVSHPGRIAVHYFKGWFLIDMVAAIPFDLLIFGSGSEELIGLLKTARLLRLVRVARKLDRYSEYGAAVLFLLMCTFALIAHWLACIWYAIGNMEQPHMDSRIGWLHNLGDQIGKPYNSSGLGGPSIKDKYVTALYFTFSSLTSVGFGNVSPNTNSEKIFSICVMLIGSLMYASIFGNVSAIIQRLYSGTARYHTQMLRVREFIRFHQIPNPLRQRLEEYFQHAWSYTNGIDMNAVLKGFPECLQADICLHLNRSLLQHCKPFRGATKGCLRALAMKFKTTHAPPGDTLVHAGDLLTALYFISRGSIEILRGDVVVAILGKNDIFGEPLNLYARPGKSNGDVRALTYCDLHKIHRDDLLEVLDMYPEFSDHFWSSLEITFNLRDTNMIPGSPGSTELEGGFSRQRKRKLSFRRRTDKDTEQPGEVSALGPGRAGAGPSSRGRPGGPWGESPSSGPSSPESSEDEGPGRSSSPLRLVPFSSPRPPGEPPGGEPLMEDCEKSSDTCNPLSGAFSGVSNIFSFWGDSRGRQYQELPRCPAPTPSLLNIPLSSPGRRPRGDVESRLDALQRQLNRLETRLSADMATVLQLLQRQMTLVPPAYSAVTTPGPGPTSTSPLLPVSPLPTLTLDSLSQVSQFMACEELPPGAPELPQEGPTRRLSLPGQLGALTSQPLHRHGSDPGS

Compound | hERG current change (%, negative = inhibition) at 1uM [%]
COc1cc(C(=O)OCC(=O)NC2CCCC2)cc(OC)c1OC | 17.9
CC(=O)Oc1ccc([C@@H]2COc3c(ccc4c3C=CC(C)(C)O4)C2)c(OC(C)=O)c1 | 15.1
NC(=O)N/N=C/c1cccc(C(F)(F)F)c1 | 8.76
O=C(COC(=O)c1ccc2ncsc2c1)Nc1ncc(Cl)cc1Cl | 5.17
CCNC(=O)/C(C#N)=C/c1c(N(Cc2ccccc2)Cc2ccccc2)nc2ccccn2c1=O | -11.9
CCc1ccc(/C=C\C(=O)N2CCCC2)cc1 | 6.1
COc1ccccc1NC(=O)Cc1csc(N)n1 | 13.9
O=C(Oc1ccc2ccccc2c1Br)N1CCCCCC1 | 8.05
CCOC(=O)c1ccc[n+](CC(=O)c2ccc(NC(=O)c3ccccc3)cc2)c1.[Br-] | 2.86
O=C(CCCn1c(=O)oc2ccccc21)N1CCN(c2ccccn2)CC1 | -9.08
Cc1nc2c(n1O)CCC/C2=N\O | 8.48
CN(/N=C/c1ccc([N+](=O)[O-])o1)c1ccccc1 | 10.4
O=C1c2c(O)cccc2Cc2cccc(O)c21 | 8.11
Cc1cccc(CS(=O)(=O)c2cn(CC(=O)N3CCOCC3)c3ccccc23)c1 | 11.9
O=C(c1ccc2c3c(cccc13)C(=O)N(O)C2=O)N1CCCCC1 | 8.18
COc1ccc(CC(=O)NCc2ccccc2)cc1OC | 11.6
CCN1C(=O)C(CC(=O)Nc2ccccc2)N(Cc2ccccn2)C1=S (centres unmarked) | -2.13
O=C(CSc1nc2ccccc2o1)N1CCOCC1 | 12.5
Cc1c(Cl)cccc1NC(=O)Cn1c(-c2ccc(F)cc2)noc1=O | 22.2
CC(OC(=O)c1ccc(Cl)cc1)C(=O)NCC1CCCCC1 (centres unmarked) | 7.04
O=C1NC(c2cccnc2)C(C(=O)c2cccs2)C(O)(C(F)(F)F)N1 (centres unmarked) | -14.6
Cl.O=C(O)c1ccc(CNCc2c(Cl)cccc2Cl)cc1 | -2.86

Compound | hERG current change (%, negative = inhibition) at 1uM [%]
Cc1cccc(C)c1NC(=O)CC1SC2=NCCN2C1=O (centres unmarked) | 10.4
O=C(Nc1ccccc1Cc1ccccc1)c1ccc2c(c1)SC1=NS(=O)(=O)CCN12 | 0.207
COc1cc2c(cc1NC(=O)c1ccc(C(C)(C)C)cc1)CCCC2 | 2.82
O=C(CCC(=O)N1CCOc2ccccc21)NCc1ccccn1 | 14.8
Cc1ccc(S(=O)(=O)N2CCCN(C(=O)c3cc4ccccc4[nH]3)CC2)cc1 | 3.06
COc1ccc(NC(=O)CCN2C(=O)c3ccccc3C2=O)cc1 | 16.8
COc1cccc(N2CCN(C(=O)CCSCc3ccccc3F)CC2)c1 | -9.59
Cc1nnc(SCC(=O)Nc2ncc(Cc3ccc(F)cc3)s2)n1N | 8.14
Nc1cc(=O)[nH]c(SCC(=O)Nc2ccc(F)c(Cl)c2)n1 | 13.2
CC(C)(C)NC(=O)CSc1nc(N)c(NC(=O)c2ccccc2F)c(=O)[nH]1 | 17.2
CC1CCCCC1NC(=O)CSc1nc2ccccc2[nH]1 (centres unmarked) | 12
COc1cc2c(cc1NC(=O)C(c1ccccc1)c1ccccc1)CCCC2 | 8.77
CC(=O)NS(=O)(=O)c1cccnc1Nc1ccc(Cl)c(Cl)c1 | 13.1
O=C(N/N=C/C=C/c1ccccc1[N+](=O)[O-])c1cccnc1 | 2.94
Cc1ccc(C)c(S(=O)(=O)N/N=C/c2ccc(N(C)C)cc2)c1 | 17.4
Cc1nn(C)c(C)c1CNC(=O)c1nn2c(c1Cl)NC(c1cccs1)CC2C(F)(F)F (centres unmarked) | 7.05
Cc1ccc(NC(=O)CS(=O)CC(=O)Nc2ccc(N3CCOCC3)cc2)cc1Cl (centres unmarked) | 9.05
CC1Cc2ccccc2N1C(=O)CN1C(=O)NC2(CCCCC2)C1=O (centres unmarked) | 17.9
Cc1ccc(C2=C(CC(=O)O)C(=O)CC2)cc1 | 14.1
C/C(=N/Nc1ccccc1[N+](=O)[O-])c1ccc([N+](=O)[O-])cc1 | 12.4
Cc1nc2nc[nH]n2c(=O)c1NC(=O)c1c(-c2ccccc2Cl)noc1C | 8.11
O=S1(=O)N=C2CCCCCN2C(c2ccncc2)N1 (centres unmarked) | -0.59
